# Measurements taken from the supplement of paper PMC8728848.
# This is one part of the list.
# Columns and labels:
# Test in all cases: glycan array binding signal (z-score within array); higher = stronger binding
# Conditions in all cases: glycan notation: IUPAC condensed, linker removed
# [1] = target: Neu5Ac(a2-3)Gal
# Procedure, shortened: (§1)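 Glycan array data were curated from 3228 arrays in the Consortium for Functional Glycomics database and kept only where the protein sequence was available. Glycan names were converted to IUPAC-condensed notation, and columns mapping to the same glycan were averaged. The binding signal is a within-array Z-score, averaged across arrays of the same protein sequence at different concentrations or buffers and across linkers. Negative Z-scores can be read as non-binding.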
# [2] = target: Neu5Ac(a2-3)Gal(b1-3)GalNAc
# Procedure, shortened: as §1
# [3] = target: Neu5Ac(a2-3)Gal(b1-3)GalNAc(b1-3)Gal(a1-4)Gal(b1-4)Glc
# Procedure, shortened: as §1
# [4] = target: Neu5Ac(a2-3)Gal(b1-3)GalNAc(b1-4)Gal(b1-4)Glc
# Procedure, shortened: as §1
# [5] = target: Neu5Ac(a2-3)Gal(b1-3)GalNAc(b1-4)[Neu5Ac(a2-3)]Gal(b1-4)Glc
# Procedure, shortened: as §1
# [6] = target: Neu5Ac(a2-3)Gal(b1-3)GalNAc(b1-4)[Neu5Ac(a2-8)Neu5Ac(a2-3)]Gal(b1-4)Glc
# Procedure, shortened: as §1
# [7] = target: Neu5Ac(a2-3)Gal(b1-3)GalNAc6S
# Procedure, shortened: as §1
# [8] = target: Neu5Ac(a2-3)Gal(b1-3)GlcNAc
# Procedure, shortened: as §1
# [9] = target: Neu5Ac(a2-3)Gal(b1-3)GlcNAc(b1-2)Man
# Procedure, shortened: as §1
# [10] = target: Neu5Ac(a2-3)Gal(b1-3)GlcNAc(b1-2)Man(a1-3)[GlcNAc(b1-4)][Neu5Ac(a2-3)Gal(b1-3)GlcNAc(b1-2)Man(a1-6)]Man(b1-4)GlcNAc(b1-4)GlcNAc
# Procedure, shortened: as §1
# [11] = target: Neu5Ac(a2-3)Gal(b1-3)GlcNAc(b1-2)Man(a1-3)[Neu5Ac(a2-3)Gal(b1-3)GlcNAc(b1-2)Man(a1-6)]Man(b1-4)GlcNAc(b1-4)GlcNAc
# Procedure, shortened: as §1
# [12] = target: Neu5Ac(a2-3)Gal(b1-3)GlcNAc(b1-2)[Neu5Ac(a2-3)Gal(b1-3)GlcNAc(b1-4)]Man(a1-6)[Neu5Ac(a2-3)Gal(b1-3)GlcNAc(b1-2)Man(a1-3)]Man(b1-4)GlcNAc(b1-4)GlcNAc
# Procedure, shortened: as §1
# [13] = target: Neu5Ac(a2-3)Gal(b1-3)GlcNAc(b1-3)Gal(b1-3)GlcNAc
# Procedure, shortened: as §1
# [14] = target: Neu5Ac(a2-3)Gal(b1-3)GlcNAc(b1-3)Gal(b1-4)GlcNAc
# Procedure, shortened: as §1
# [15] = target: Neu5Ac(a2-3)Gal(b1-3)GlcNAc(b1-3)GalNAc
# Procedure, shortened: as §1
# [16] = target: Neu5Ac(a2-3)Gal(b1-3)GlcNAc(b1-6)GalNAc
# Procedure, shortened: as §1
# [17] = target: Neu5Ac(a2-3)Gal(b1-3)GlcNAc6S
# Procedure, shortened: as §1
# [18] = target: Neu5Ac(a2-3)Gal(b1-3)[Fuc(a1-4)]GlcNAc
# Procedure, shortened: as §1
# [19] = target: Neu5Ac(a2-3)Gal(b1-3)[Fuc(a1-4)]GlcNAc(b1-3)Gal(b1-3)[Fuc(a1-4)]GlcNAc
# Procedure, shortened: as §1
# [20] = target: Neu5Ac(a2-3)Gal(b1-3)[Fuc(a1-4)]GlcNAc(b1-3)Gal(b1-4)[Fuc(a1-3)]GlcNAc
# Procedure, shortened: as §1
# [21] = target: Neu5Ac(a2-3)Gal(b1-3)[GlcNAc(b1-6)]GalNAc
# Procedure, shortened: as §1
# [22] = target: Neu5Ac(a2-3)Gal(b1-3)[Neu5Ac(a2-6)]GalNAc
# Procedure, shortened: as §1
# [23] = target: Neu5Ac(a2-3)Gal(b1-3)[Neu5Ac(a2-6)]GlcNAc(b1-3)[Fuc(a1-3)[Gal(b1-4)]GlcNAc(b1-6)]Gal(b1-4)Glc
# Procedure, shortened: as §1
# [24] = target: Neu5Ac(a2-3)Gal(b1-3)]Neu5Ac(a2-3)Gal(b1-4)]GlcNAc
# Procedure, shortened: as §1
# [25] = target: Neu5Ac(a2-3)Gal(b1-4)Glc
# Procedure, shortened: as §1
# [26] = target: Neu5Ac(a2-3)Gal(b1-4)GlcNAc
# Procedure, shortened: as §1
# [27] = target: Neu5Ac(a2-3)Gal(b1-4)GlcNAc(b1-2)Man
# Procedure, shortened: as §1
# [28] = target: Neu5Ac(a2-3)Gal(b1-4)GlcNAc(b1-2)Man(a1-3)[GlcNAc(b1-4)][Neu5Ac(a2-3)Gal(b1-4)GlcNAc(b1-2)Man(a1-6)]Man(b1-4)GlcNAc(b1-4)GlcNAc
# Procedure, shortened: as §1
# [29] = target: Neu5Ac(a2-3)Gal(b1-4)GlcNAc(b1-2)Man(a1-3)[Neu5Ac(a2-3)Gal(b1-4)GlcNAc(b1-2)Man(a1-6)]Man(b1-4)GlcNAc(b1-4)GlcNAc
# Procedure, shortened: as §1
# [30] = target: Neu5Ac(a2-3)Gal(b1-4)GlcNAc(b1-2)Man(a1-3)[Neu5Ac(a2-3)Gal(b1-4)GlcNAc(b1-2)Man(a1-6)]Man(b1-4)GlcNAc(b1-4)[Fuc(a1-6)]GlcNAc
# Procedure, shortened: as §1
# [31] = target: Neu5Ac(a2-3)Gal(b1-4)GlcNAc(b1-2)Man(a1-3)[Neu5Ac(a2-6)Gal(b1-4)GlcNAc(b1-2)Man(a1-6)]Man(b1-4)GlcNAc(b1-4)GlcNAc
# Procedure, shortened: as §1
# [32] = target: Neu5Ac(a2-3)Gal(b1-4)GlcNAc(b1-2)[Neu5Ac(a2-3)Gal(b1-4)GlcNAc(b1-4)]Man(a1-3)[GlcNAc(b1-4)][Neu5Ac(a2-3)Gal(b1-4)GlcNAc(b1-2)[Neu5Ac(a2-3)Gal(b1-4)GlcNAc(b1-6)]Man(a1-6)]Man(b1-4)GlcNAc(b1-4)GlcNAc
# Procedure, shortened: as §1
# [33] = target: Neu5Ac(a2-3)Gal(b1-4)GlcNAc(b1-2)[Neu5Ac(a2-3)Gal(b1-4)GlcNAc(b1-4)]Man(a1-3)[GlcNAc(b1-4)][Neu5Ac(a2-3)Gal(b1-4)GlcNAc(b1-4)Man(a1-6)]Man(b1-4)GlcNAc(b1-4)GlcNAc
# Procedure, shortened: as §1
# [34] = target: Neu5Ac(a2-3)Gal(b1-4)GlcNAc(b1-2)[Neu5Ac(a2-3)Gal(b1-4)GlcNAc(b1-6)]Man(a1-6)[Neu5Ac(a2-3)Gal(b1-4)GlcNAc(b1-2)Man(a1-3)][GlcNAc(b1-4)]Man(b1-4)GlcNAc(b1-4)GlcNAc
# Procedure, shortened: as §1
# [35] = target: Neu5Ac(a2-3)Gal(b1-4)GlcNAc(b1-3)Gal
# Procedure, shortened: as §1
# [36] = target: Neu5Ac(a2-3)Gal(b1-4)GlcNAc(b1-3)Gal(b1-3)GlcNAc
# Procedure, shortened: as §1
# [37] = target: Neu5Ac(a2-3)Gal(b1-4)GlcNAc(b1-3)Gal(b1-4)GlcNAc
# Procedure, shortened: as §1
binder,measurement,setting,value
"Gal-9-hFc (Mus musculus), O08573-2 (protein) MALFSAQSPYINPIIPFTGPIQGGLQEGLQVTLQGTTKSFAQRFVVNFQNSFNGNDIAFHFNPRFEEGGYVVCNTKQNGQWGPEERKMQMPFQKGMPFELCFLVQRSEFKVMVNKKFFVQYQHRVPYHLVDTIAVSGCLKLSFITFQTQNFRPAHQAPMAQTTIHMVHSTPGQMFSTPGIPPVVYPTPAYTIPFYTPIPNGLYPSKSIMISGNVLPDATRFHINLRCGGDIAFHLNPRFNENAVVRNTQINNSWGQEERSLLGRMPFSRGQSFSVWIICEGHCFKVAVNGQHMCEYYHRLKNLQDINTLEVAGDIQLTHVQT",glycan array binding signal (z-score),[1],-0.463
same,glycan array binding signal (z-score),[2],0.302
same,glycan array binding signal (z-score),[3],-0.017
same,glycan array binding signal (z-score),[4],0.063
same,glycan array binding signal (z-score),[5],-0.079
same,glycan array binding signal (z-score),[6],-0.474
same,glycan array binding signal (z-score),[7],-0.316
same,glycan array binding signal (z-score),[8],-0.093
same,glycan array binding signal (z-score),[9],-0.372
same,glycan array binding signal (z-score),[10],0.569
same,glycan array binding signal (z-score),[11],1.16
same,glycan array binding signal (z-score),[12],-0.482
same,glycan array binding signal (z-score),[13],-0.12
same,glycan array binding signal (z-score),[14],-0.13
same,glycan array binding signal (z-score),[15],-0.372
same,glycan array binding signal (z-score),[16],-0.256
same,glycan array binding signal (z-score),[17],-0.023
same,glycan array binding signal (z-score),[18],-0.417
same,glycan array binding signal (z-score),[19],-0.306
same,glycan array binding signal (z-score),[20],-0.428
same,glycan array binding signal (z-score),[21],-0.36
same,glycan array binding signal (z-score),[22],-0.277
same,glycan array binding signal (z-score),[23],-0.565
same,glycan array binding signal (z-score),[24],-0.473
same,glycan array binding signal (z-score),[25],0.865
same,glycan array binding signal (z-score),[26],-0.36
same,glycan array binding signal (z-score),[27],3.47
same,glycan array binding signal (z-score),[28],-0.387
same,glycan array binding signal (z-score),[29],-0.294
same,glycan array binding signal (z-score),[30],-0.407
same,glycan array binding signal (z-score),[31],1.58
same,glycan array binding signal (z-score),[32],-0.527
same,glycan array binding signal (z-score),[33],-0.359
same,glycan array binding signal (z-score),[34],-0.446
same,glycan array binding signal (z-score),[35],-0.264
same,glycan array binding signal (z-score),[36],-0.186
same,glycan array binding signal (z-score),[37],-0.313
